# In all, about 52,000 compounds went through this assay and about 1,700 (3.3%) were called active. No stated cut-off is given here; in the data, active means survival mostly below about 52% (no sharp cut-off); inactive means mostly above about 56%. Some of the results follow.
# System: Wild type
# Test: growth inhibition of S. aureus wild type versus tarO mutant, primary screen, teichoic acid synthesis inhibitors, RN4220, OD600 (AID 463173)
# Settings: S. aureus RN4220 wild type/DeltatarO growth, OD600, 18 h, hits give low values, screened at 18.75 µg/mL (by protocol)
row,SMILES,survival
1,O=C(Nc1ccc(F)cc1F)c1noc2c1CCc1ccccc1-2,inactive: 91%
2,Cc1cccc(-n2c3nc(=O)n(C)c(=O)c-3cc3c(Cl)cccc32)c1C,inactive: 79%
3,COC(=O)c1ccccc1NC(=O)Cc1noc2ccc(C)cc12,inactive: 78%
4,O=C(Nc1ccc(Cl)c(Cl)c1)N1CCC(c2ccccc2)C1 (stereo not drawn),inactive: 71%
5,COc1ccc(NC(=O)Cn2c(=O)n(Cc3nc(-c4ccccc4)no3)c(=O)c3cc4c(cc32)OCO4)cc1Cl,inactive: 93%
6,Cc1cccn2c(=O)cc(COc3cccc(NC(=O)c4ccccc4F)c3)nc12,active: -6%
7,COc1ccc(Br)cc1CNC(=O)CN1CCSc2ccccc21,inactive: 79%
8,CCc1ccc(NC(=O)CC2C(=O)N(c3ccccc3)C(=O)N2C(C)C)cc1 (stereo not drawn),active: -6%
9,Cc1cccc(NC(=S)NC(=O)/C=C/c2ccco2)c1,inactive: 110%
10,COc1ccc(CNc2ncnc3c2nnn3C)cc1,inactive: 77%
11,COC(=O)C1=C(C)N(c2ccc(N(C)C)cc2)C(C)=C(C(=O)OC)C1c1ccccc1,inactive: 101%
12,COc1ccc2c(c1)-c1nc(NC(=O)c3ccc(Cl)cc3)sc1CC2,inactive: 93%
13,Cc1ccc2oc(-c3ccc(Cl)c(NC(=O)c4ccc(-c5ccccc5[N+](=O)[O-])o4)c3)nc2c1,inactive: 76%
14,Cc1cn(C2CC(O)C(CO)O2)c(=O)[nH]c1=O (stereo not drawn),inactive: 102%
15,Cc1nn(CC(=O)NCc2ccc(OC(C)C)cc2)c(=O)c2c(C)n(-c3ccc(Cl)cc3)nc12,inactive: 81%
16,COc1ccc(CN2C(=O)C(NC(=O)c3ccccc3C)(C(F)(F)F)N=C2c2ccccc2)cc1 (stereo not drawn),inactive: 81%
17,Cc1cccc(NC(=O)Cn2cc(C(=O)c3ccco3)c3ccccc32)c1C,inactive: 81%
18,CCc1ccccc1NC(=O)Cn1nnc(C(=O)Nc2ccc(C)c(F)c2)c1N,inactive: 88%
19,CCCCCOc1ccc(C2c3c(oc4ccccc4c3=O)C(=O)N2c2nc(C)c(C)s2)cc1OCC (stereo not drawn),inactive: 74%
20,CSc1ccc(CCNC(=O)Cn2ncc3c(=O)oc4ccc(C)cc4c32)cc1,inactive: 83%

row,SMILES,survival
1,CC1(C)CC2CC(C)(CN2C(=O)Cc2ccccc2)C1 (stereo not drawn),inactive: 110%
2,OCCNc1nc2ccccc2s1,inactive: 108%
3,COc1ccccc1CCNc1ncnc2c1nnn2C,inactive: 74%
4,COc1ccc(S(=O)(=O)c2c(SC)nn(Cc3ccccc3C)c2NC(C)=O)cc1,inactive: 47%
5,COc1ccc(C)cc1NC(=O)c1ccc2c(Cl)c3c(nc2c1)CCC3,inactive: 90%
6,Cn1nc(C(=O)N2CCN(c3ccccc3)CC2)c2c1-c1ccccc1S(=O)(=O)C2,inactive: 83%
7,CN(C)S(=O)(=O)c1cccc2nsnc12,inactive: 120%
8,O=C(Nc1ccc(O)cc1)c1cccc(S(=O)(=O)N2CCOCC2)c1,inactive: 85%
9,O=C(CSc1nc2c([nH]c3ccccc32)c(=O)n1-c1ccccc1)N1CCCC1,inactive: 72%
10,COc1ccc(S(=O)(=O)CCc2nc3ccccc3n2CC(=O)O)cc1,inactive: 102%
11,CN(C(=O)COc1ccccc1)C1CCS(=O)(=O)C1 (stereo not drawn),inactive: 98%
12,S=c1[nH]nc(COc2ccccc2)o1,inactive: 77%
13,COc1cc(C2CC(=O)Nc3c2c(=O)[nH]c2ncnn32)ccc1O (stereo not drawn),inactive: 77%
14,CCOc1ccc(N=C2SCC(=O)N2CC)cc1,inactive: 123%
15,CCOC(=O)C1CCCN(C(=O)c2ccc3c(c2)N(Cc2ccccc2)C(=O)c2ccccc2S3=O)C1 (stereo not drawn),inactive: 146%
16,Cc1ccc(C)c(NC(=O)Cn2c(=O)n(CCC(=O)NCc3ccc4c(c3)OCO4)c(=O)c3ccccc32)c1,inactive: 103%
17,CCCN1CCCc2cc(CN(CCCN3CCOCC3)C(=O)Nc3ccc(CC)cc3)ccc21,inactive: 123%
18,Cc1ccc(OCC(=O)Nc2ccc3nn(-c4ccc(Cl)cc4)nc3c2)cc1,inactive: 78%
19,CCOC(=O)c1cccc(Nc2ccc3cc(S(=O)(=O)N4CCCCC4)ccc3n2)c1,active: -3%
20,O=c1c2oc3ccccc3c2n(Cc2ccccc2)c(=O)n1Cc1ccc2c(c1)OCO2,inactive: 90%

row,SMILES,survival
1,COc1cc2c(cc1OC)n(CC(=O)c1ccc(F)cc1)c(=O)n1nc(CCn3nc(C)cc3C)nc21,inactive: 119%
2,COc1cccc(CNC(=O)c2ccc(NC(=O)N3CCCCc4ccccc43)cc2)c1,inactive: 88%
3,COc1ccc2oc(=O)cc(CN3CCN(c4ccccc4F)CC3)c2c1,inactive: 81%
4,CCCCn1c(=O)c2oc3ccccc3c2n(CC(=O)Nc2cccc(Cl)c2)c1=O,inactive: 87%
5,CCCCc1nn2c(=O)cc(COC(=O)c3ccccc3NC(=O)c3ccccc3OC)nc2s1,inactive: 66%
6,COc1cccc(NS(=O)(=O)c2ccc3[nH]cc(C(=O)N(C)C4CCCCC4)c(=O)c3c2)c1,inactive: 68%
7,CCCC(=O)N1c2nc(C(C)C)nn2C2(CCCCC2)[C@@H]2CCCC[C@@H]21,inactive: 98%
8,Cc1cc(C)cc(NC(=O)N2CCC(NC(=O)C3CCCCC3)CC2)c1,inactive: 107%
9,O=C(Nc1cccc(Cl)c1)c1csnn1,inactive: 88%
10,Cc1ccc(-c2nc(SCC(=O)NCC3CCCO3)c(-c3ccc(C)cc3)[nH]2)cc1 (stereo not drawn),inactive: 84%
11,Cc1ccc(C(=O)CSc2nnc(-c3cccc(C)c3)o2)cc1,inactive: 113%
12,Cc1ccc(NC(=O)C2CC=CCC2C(=O)N2CCCCC2)cc1 (stereo not drawn),inactive: 98%
13,NC(=O)c1cc(S(=O)(=O)NCC2CCC(C(=O)Nc3ccc(Cl)cc3)CC2)cs1 (stereo not drawn),inactive: 65%
14,Cc1nnc(N2CCN(C(=O)Nc3cccc(C(F)(F)F)c3)CC2)c2nn(-c3ccccc3)c(C)c12,inactive: 72%
15,Cc1cccc(NC(=O)C(O)C(O)C(=O)Nc2cccc(C)c2)c1 (stereo not drawn),inactive: 108%
16,CCOC(=O)c1[nH]c(C)c(CCC(=O)Nc2ccccc2C(=O)OC)c1C,inactive: 73%
17,CCc1nn(CC(=O)NCCc2ccc(Cl)cc2)c(=O)c2cc3ccccc3n12,inactive: 77%
18,Cc1cc(N2CCN(c3ccc(F)cc3)CC2)n2nc(-c3ccc(Cl)cc3)nc2n1,inactive: 80%
